# The list shows a part of the results.
# Columns and labels:
# Assay in all cases: glycan array binding signal (z-score within array); higher = stronger binding
# Details in all cases: glycan notation: IUPAC condensed, linker removed
# [1] = target: Gal(b1-4)GlcNAc(b1-2)[Gal(b1-4)GlcNAc(b1-6)]Man(a1-6)[Gal(b1-4)GlcNAc(b1-2)Man(a1-3)]Man(b1-4)GlcNAc(b1-4)[Fuc(a1-6)]GlcNAc
# Procedure, shortened: (§1)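 The binding signal is a Z-score computed within each array. Data were drawn from 3228 arrays in the Consortium for Functional Glycomics database, restricted to those with a known protein sequence. Scores were averaged over arrays of the same protein sequence at different concentrations or buffers, and over linkers, and negative values can be taken as non-binding.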
# [2] = target: Gal(b1-4)GlcNAc(b1-2)[Gal(b1-4)GlcNAc(b1-6)]Man(a1-6)[GlcNAc(b1-4)][Gal(b1-4)GlcNAc(b1-2)Man(a1-3)]Man(b1-4)GlcNAc(b1-4)GlcNAc
# Procedure, shortened: as §1
# [3] = target: Gal(b1-4)GlcNAc(b1-2)[Gal(b1-4)GlcNAc(b1-6)]Man(a1-6)[GlcNAc(b1-4)][Gal(b1-4)GlcNAc(b1-2)[Gal(b1-4)GlcNAc(b1-4)]Man(a1-3)]Man(b1-4)GlcNAc(b1-4)[Fuc(a1-6)]GlcNAc
# Procedure, shortened: as §1
# [4] = target: Gal(b1-4)GlcNAc(b1-3)Gal(b1-3)GalNAc
# Procedure, shortened: as §1
# [5] = target: Gal(b1-4)GlcNAc(b1-3)Gal(b1-3)GlcNAc
# Procedure, shortened: as §1
# [6] = target: Gal(b1-4)GlcNAc(b1-3)Gal(b1-4)Glc
# Procedure, shortened: as §1
# [7] = target: Gal(b1-4)GlcNAc(b1-3)Gal(b1-4)GlcNAc
# Procedure, shortened: as §1
# [8] = target: Gal(b1-4)GlcNAc(b1-3)Gal(b1-4)GlcNAc(b1-2)Man(a1-3)[Gal(b1-4)GlcNAc(b1-3)Gal(b1-4)GlcNAc(b1-2)Man(a1-6)]Man(b1-4)GlcNAc(b1-4)GlcNAc
# Procedure, shortened: as §1
# [9] = target: Gal(b1-4)GlcNAc(b1-3)Gal(b1-4)GlcNAc(b1-2)Man(a1-3)[Gal(b1-4)GlcNAc(b1-3)Gal(b1-4)GlcNAc(b1-2)Man(a1-6)]Man(b1-4)GlcNAc(b1-4)[Fuc(a1-6)]GlcNAc
# Procedure, shortened: as §1
# [10] = target: Gal(b1-4)GlcNAc(b1-3)Gal(b1-4)GlcNAc(b1-2)[Gal(b1-4)GlcNAc(b1-3)Gal(b1-4)GlcNAc(b1-6)]Man(a1-6)[Gal(b1-4)GlcNAc(b1-3)Gal(b1-4)GlcNAc(b1-2)Man(a1-3)]Man(b1-4)GlcNAc(b1-4)GlcNAc
# Procedure, shortened: as §1
# [11] = target: Gal(b1-4)GlcNAc(b1-3)Gal(b1-4)GlcNAc(b1-2)[Gal(b1-4)GlcNAc(b1-3)Gal(b1-4)GlcNAc(b1-6)]Man(a1-6)[Gal(b1-4)GlcNAc(b1-3)Gal(b1-4)GlcNAc(b1-2)Man(a1-3)]Man(b1-4)GlcNAc(b1-4)[Fuc(a1-6)]GlcNAc
# Procedure, shortened: as §1
# [12] = target: Gal(b1-4)GlcNAc(b1-3)Gal(b1-4)GlcNAc(b1-3)Gal(b1-4)GlcNAc
# Procedure, shortened: as §1
# [13] = target: Gal(b1-4)GlcNAc(b1-3)Gal(b1-4)GlcNAc(b1-3)Gal(b1-4)GlcNAc(b1-2)Man(a1-3)[Gal(b1-4)GlcNAc(b1-3)Gal(b1-4)GlcNAc(b1-3)Gal(b1-4)GlcNAc(b1-2)Man(a1-6)]Man(b1-4)GlcNAc(b1-4)GlcNAc
# Procedure, shortened: as §1
# [14] = target: Gal(b1-4)GlcNAc(b1-3)Gal(b1-4)GlcNAc(b1-3)Gal(b1-4)GlcNAc(b1-2)Man(a1-3)[Gal(b1-4)GlcNAc(b1-3)Gal(b1-4)GlcNAc(b1-3)Gal(b1-4)GlcNAc(b1-2)Man(a1-6)]Man(b1-4)GlcNAc(b1-4)[Fuc(a1-6)]GlcNAc
# Procedure, shortened: as §1
# [15] = target: Gal(b1-4)GlcNAc(b1-3)Gal(b1-4)GlcNAc(b1-3)Gal(b1-4)GlcNAc(b1-2)[Gal(b1-4)GlcNAc(b1-3)Gal(b1-4)GlcNAc(b1-3)Gal(b1-4)GlcNAc(b1-6)]Man(a1-6)[Gal(b1-4)GlcNAc(b1-3)Gal(b1-4)GlcNAc(b1-3)Gal(b1-4)GlcNAc(b1-2)Man(a1-3)]Man(b1-4)GlcNAc(b1-4)[Fuc(a1-6)]GlcNAc
# Procedure, shortened: as §1
# [16] = target: Gal(b1-4)GlcNAc(b1-3)Gal(b1-4)GlcNAc(b1-3)Gal(b1-4)GlcNAc(b1-3)Gal(b1-4)GlcNAc(b1-2)Man(a1-3)[Gal(b1-4)GlcNAc(b1-3)Gal(b1-4)GlcNAc(b1-3)Gal(b1-4)GlcNAc(b1-3)Gal(b1-4)GlcNAc(b1-2)Man(a1-6)]Man(b1-4)GlcNAc(b1-4)GlcNAc
# Procedure, shortened: as §1
# [17] = target: Gal(b1-4)GlcNAc(b1-3)Gal(b1-4)GlcNAc(b1-3)Gal(b1-4)GlcNAc(b1-3)Gal(b1-4)GlcNAc(b1-2)Man(a1-3)[Gal(b1-4)GlcNAc(b1-3)Gal(b1-4)GlcNAc(b1-3)Gal(b1-4)GlcNAc(b1-3)Gal(b1-4)GlcNAc(b1-2)Man(a1-6)]Man(b1-4)GlcNAc(b1-4)[Fuc(a1-6)]GlcNAc
# Procedure, shortened: as §1
# [18] = target: Gal(b1-4)GlcNAc(b1-3)Gal(b1-4)GlcNAc(b1-3)Gal(b1-4)GlcNAc(b1-3)Gal(b1-4)GlcNAc(b1-2)[Gal(b1-4)GlcNAc(b1-3)Gal(b1-4)GlcNAc(b1-3)Gal(b1-4)GlcNAc(b1-3)Gal(b1-4)GlcNAc(b1-6)]Man(a1-6)[Gal(b1-4)GlcNAc(b1-3)Gal(b1-4)GlcNAc(b1-3)Gal(b1-4)GlcNAc(b1-3)Gal(b1-4)GlcNAc(b1-2)Man(a1-3)]Man(b1-4)GlcNAc(b1-4)[Fuc(a1-6)]GlcNAc
# Procedure, shortened: as §1
# [19] = target: Gal(b1-4)GlcNAc(b1-3)Gal(b1-4)GlcNAc(b1-3)Gal(b1-4)GlcNAc(b1-3)Gal(b1-4)GlcNAc(b1-3)Gal(b1-4)GlcNAc(b1-2)Man(a1-3)[Gal(b1-4)GlcNAc(b1-3)Gal(b1-4)GlcNAc(b1-3)Gal(b1-4)GlcNAc(b1-3)Gal(b1-4)GlcNAc(b1-3)Gal(b1-4)GlcNAc(b1-2)Man(a1-6)]Man(b1-4)GlcNAc(b1-4)GlcNAc
# Procedure, shortened: as §1
# [20] = target: Gal(b1-4)GlcNAc(b1-3)Gal(b1-4)GlcNAc(b1-3)Gal(b1-4)GlcNAc(b1-3)Gal(b1-4)GlcNAc(b1-3)Gal(b1-4)GlcNAc(b1-2)Man(a1-3)[Gal(b1-4)GlcNAc(b1-3)Gal(b1-4)GlcNAc(b1-3)Gal(b1-4)GlcNAc(b1-3)Gal(b1-4)GlcNAc(b1-3)Gal(b1-4)GlcNAc(b1-2)Man(a1-6)]Man(b1-4)GlcNAc(b1-4)[Fuc(a1-6)]GlcNAc
# Procedure, shortened: as §1
# [21] = target: Gal(b1-4)GlcNAc(b1-3)Gal(b1-4)GlcNAc(b1-3)Gal(b1-4)GlcNAc(b1-3)Gal(b1-4)GlcNAc(b1-3)Gal(b1-4)GlcNAc(b1-2)[Gal(b1-4)GlcNAc(b1-3)Gal(b1-4)GlcNAc(b1-3)Gal(b1-4)GlcNAc(b1-3)Gal(b1-4)GlcNAc(b1-3)Gal(b1-4)GlcNAc(b1-6)]Man(a1-6)[Gal(b1-4)GlcNAc(b1-3)Gal(b1-4)GlcNAc(b1-3)Gal(b1-4)GlcNAc(b1-3)Gal(b1-4)GlcNAc(b1-3)Gal(b1-4)GlcNAc(b1-2)Man(a1-3)]Man(b1-4)GlcNAc(b1-4)[Fuc(a1-6)]GlcNAc
# Procedure, shortened: as §1
# [22] = target: Gal(b1-4)GlcNAc(b1-3)Gal(b1-4)GlcNAc(b1-3)Gal(b1-4)GlcNAc(b1-3)Gal(b1-4)GlcNAc(b1-3)Gal(b1-4)GlcNAc(b1-3)Gal(b1-4)GlcNAc(b1-2)Man(a1-3)[Gal(b1-4)GlcNAc(b1-3)Gal(b1-4)GlcNAc(b1-3)Gal(b1-4)GlcNAc(b1-3)Gal(b1-4)GlcNAc(b1-3)Gal(b1-4)GlcNAc(b1-3)Gal(b1-4)GlcNAc(b1-2)Man(a1-6)]Man(b1-4)GlcNAc(b1-4)GlcNAc
# Procedure, shortened: as §1
# [23] = target: Gal(b1-4)GlcNAc(b1-3)Gal(b1-4)GlcNAc(b1-3)GalNAc
# Procedure, shortened: as §1
binder,measurement,setting,value
PFL (Pseudomonas fluorescens) (protein) MSKYAVANQWGGSSAPWHPGGTWVLGARDNQNVVAIEIKSGDGGKSFTGTMTYAGEGPIGFKAQRTGQNQYNVENQWGGNDAPWHPGGKWVIGGRDNQNVIALSVTSSDGGKNLSGTNTYANEGPIGFRGQIE,glycan array binding signal (z-score),[1],-0.111
same,glycan array binding signal (z-score),[2],-0.115
same,glycan array binding signal (z-score),[3],-0.114
same,glycan array binding signal (z-score),[4],-0.116
same,glycan array binding signal (z-score),[5],-0.116
same,glycan array binding signal (z-score),[6],-0.113
same,glycan array binding signal (z-score),[7],-0.12
same,glycan array binding signal (z-score),[8],-0.104
same,glycan array binding signal (z-score),[9],-0.034
same,glycan array binding signal (z-score),[10],0.001
same,glycan array binding signal (z-score),[11],-0.1
same,glycan array binding signal (z-score),[12],-0.112
same,glycan array binding signal (z-score),[13],-0.101
same,glycan array binding signal (z-score),[14],-0.099
same,glycan array binding signal (z-score),[15],-0.107
same,glycan array binding signal (z-score),[16],-0.111
same,glycan array binding signal (z-score),[17],-0.103
same,glycan array binding signal (z-score),[18],-0.103
same,glycan array binding signal (z-score),[19],-0.104
same,glycan array binding signal (z-score),[20],0.054
same,glycan array binding signal (z-score),[21],-0.075
same,glycan array binding signal (z-score),[22],-0.098
same,glycan array binding signal (z-score),[23],-0.111

# Reference: the supplement of paper PMC8728848
